# Laboratory results as given in PMC4336329 (PLoS ONE, 2015).
# The whole screen tested about 310,000 compounds, of which about 14,000 (4.5%) showed an effect of 50% or more. The effect is printed as a negative number. Some of the results follow.
# Target: human ether-à-go-go-related gene (hERG) potassium channel (human, UniProt Q12809)
# Test: primary screen, population patch clamp on CHO cells stably expressing hERG
# 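Note: peak tail current of the secondary pulse compared with the same well before compound.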
# human ether-à-go-go-related gene (hERG) potassium channel, sequence (Q12809 whole entry, looked up): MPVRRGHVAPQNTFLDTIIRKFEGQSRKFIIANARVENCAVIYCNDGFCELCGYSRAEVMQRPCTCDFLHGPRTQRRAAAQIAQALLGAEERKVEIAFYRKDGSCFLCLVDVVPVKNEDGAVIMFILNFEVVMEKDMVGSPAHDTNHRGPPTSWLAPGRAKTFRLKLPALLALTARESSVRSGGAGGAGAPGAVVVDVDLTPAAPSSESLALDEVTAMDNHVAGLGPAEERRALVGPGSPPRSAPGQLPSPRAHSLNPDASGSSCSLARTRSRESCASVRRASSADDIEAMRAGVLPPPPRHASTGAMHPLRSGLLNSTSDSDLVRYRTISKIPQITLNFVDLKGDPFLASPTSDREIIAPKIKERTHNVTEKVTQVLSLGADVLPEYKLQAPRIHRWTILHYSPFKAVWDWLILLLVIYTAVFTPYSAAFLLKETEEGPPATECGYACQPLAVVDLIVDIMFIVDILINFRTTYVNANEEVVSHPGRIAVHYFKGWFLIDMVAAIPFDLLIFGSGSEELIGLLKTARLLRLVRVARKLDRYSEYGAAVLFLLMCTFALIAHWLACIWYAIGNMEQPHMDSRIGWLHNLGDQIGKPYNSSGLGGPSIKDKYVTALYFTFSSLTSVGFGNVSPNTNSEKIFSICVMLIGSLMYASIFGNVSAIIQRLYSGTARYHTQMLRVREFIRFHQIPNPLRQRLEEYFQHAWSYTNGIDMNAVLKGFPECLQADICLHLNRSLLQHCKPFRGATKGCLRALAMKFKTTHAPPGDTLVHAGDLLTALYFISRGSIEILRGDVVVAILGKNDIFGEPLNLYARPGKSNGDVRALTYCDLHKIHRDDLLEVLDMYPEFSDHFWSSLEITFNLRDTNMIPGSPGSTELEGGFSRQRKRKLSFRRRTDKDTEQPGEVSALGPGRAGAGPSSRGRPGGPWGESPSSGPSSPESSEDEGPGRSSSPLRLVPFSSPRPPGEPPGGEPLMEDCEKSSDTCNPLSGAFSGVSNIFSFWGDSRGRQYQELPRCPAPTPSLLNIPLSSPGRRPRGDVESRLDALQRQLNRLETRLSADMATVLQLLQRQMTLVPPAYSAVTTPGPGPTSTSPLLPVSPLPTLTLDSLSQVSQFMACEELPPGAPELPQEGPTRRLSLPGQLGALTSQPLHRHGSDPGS
row,Compound,"hERG current change (%, negative = inhibition) at 10uM [%]"
1,CCOC(=O)c1cnc2c(C)c(Cl)ccc2c1N1CCN(CC)CC1.Cl,-29.5
2,N#Cc1ccc(C(=O)N/N=C/c2cn(CC(=O)O)c3ccccc23)c(F)c1,-1.39
3,Cc1cc(C(=O)CSc2nc(N)cc(N)n2)c(C)n1CCc1ccc(F)cc1,-13.9
4,Cc1nc(Cl)c(C(=O)NC(=O)NCc2ccccc2)c(C)c1Cl,-6.08
5,Cc1n(CC(=O)c2ccc(F)cc2)c2ccccc2[n+]1C.[Br-],13.5
6,COc1cccc(C2CC(c3ccccc3Cl)n3ncnc3N2)c1 (stereo not shown),-14.2
7,Cc1sccc1C1C(C#N)=C(N)SC(N)=C1C#N,14.4
8,CCc1cc(OCCCCNCc2ccccc2)ccc1Cl.O=C(O)C(=O)O,-25.6
9,COc1ccc(NC(=S)NCCc2ccccc2)c(OC)c1,-0.888
10,Cc1cc(OC(C)C(=O)N(Cc2ccco2)C2CCS(=O)(=O)C2)cc(C)c1Cl (stereo not shown),-1.99
11,CCN(CC)C(=O)c1ccc(NC(=O)CSc2nnnn2-c2cc(OC)ccc2OC)cc1,16.9
12,Cc1nnc2sc(SCC(=O)Nc3ccc(Cl)cc3)nn2c1=O,13.2
13,CCc1c(C(=O)N/N=C/c2cn[nH]c2-c2ccc(F)cc2)csc1C,-18.5
14,Cc1ncsc1CCC(=O)N1CCCC(C(=O)c2cccc(Cl)c2)C1 (stereo not shown),-1.87
15,Cc1cccc(NC(=O)COC(=O)c2ccc([N+](=O)[O-])o2)c1C,8.7
16,O=C1C2C3C=CC(C3)C2C(=O)N1c1ccc(Cc2ccncc2)cc1 (stereo not shown),-0.768
17,O=[N+]([O-])c1cccnc1NCCNc1ncc(C(F)(F)F)cc1Cl,13.6
18,O=C(Nc1cccc(S(=O)(=O)Nc2ccc(Cl)cc2)c1)c1ccc(Cl)nc1,19.8
19,CCC(C)NC(=S)N(CCc1ccccc1)Cc1cc2cc(OC)c(OC)cc2[nH]c1=O (stereo not shown),-32.4
20,Cc1sc2nc(CC(=O)N3CCCC3)[nH]c(=O)c2c1C,3.32
21,O=C(N/C=N/O)C(c1ccccc1)c1ncc(C(F)(F)F)cc1Cl (stereo not shown),3.35
22,O=C1NC(=Nc2ccc(F)cc2)CS1,24.4

row,Compound,"hERG current change (%, negative = inhibition) at 10uM [%]"
1,Cc1cc(/C=N/NC(N)=O)c(C)n1-c1ccc(F)cc1,-2.06
2,CCCSc1nc2c(cnn2-c2ccc(Cl)cc2)c(=O)[nH]1,14.8
3,CCN1C(=O)c2ccccc2S(=O)c2ccc(C(=O)N3CCCC3)cc21 (stereo not shown),-2
4,CCCn1c(N)c(N(CCOC)C(=O)/C=C/c2cccc(Cl)c2)c(=O)[nH]c1=O,28
5,COc1ccc(N2CC(C(=O)N/N=C/c3cc([N+](=O)[O-])ccc3O)CC2=O)cc1 (stereo not shown),-8.45
6,O=C(NCCC1CCCCN1S(=O)(=O)c1ccc(F)cc1)C(=O)NC1CC1 (stereo not shown),-13.9
7,COc1ccc(CN2CCNC(=O)C2CC(=O)NC2CCCCCC2)cc1C (stereo not shown),-5.91
8,COc1cc(O)c(C(CCN2CCCC2)c2ccc3c(c2)OCO3)c(OC)c1 (stereo not shown),-72.5
9,Cc1cccc(/C=N/NC(=O)NC2CCCCC2)c1,14
10,CC1=NN(C(C#N)c2ccccc2)C(c2ccccc2)C1 (stereo not shown),3.71
11,O=C(CN(c1ccccc1)S(=O)(=O)c1ccc(F)cc1)NCc1cccs1,7.09
12,O=C1/C(=C/c2cccnc2)N2CCC1CC2,34.6
13,O=C(COC(=O)C1CCC1)c1c[nH]c2ccccc12,0.941
14,CCCCCCc1nc2ccccc2c(=O)n1N,-6.75
15,Cc1ccc(CC(=O)Nc2ccc(C(=O)N3CCOCC3)cc2)cc1,-20.7
16,CN(C(=O)CSc1nnc(-c2n[nH]c3ccccc23)o1)c1ccccc1,12
17,CCCc1nc2sc(C(=O)OCC)c(N)c2c2c1COC(C)(C)C2,-3.77
18,COC(=O)c1ccc(S(=O)(=O)N2CCCCCC2)cc1,-5.64
19,Cc1cccc(C)c1NC(=O)C1CC2CCC1C2 (stereo not shown),22.1
20,CN(C)C(=O)[C@H]1C[C@H]1[C@@H](O)[C@H](CO)NC(=O)[C@H](Cc1ccccc1)NC(=O)OC(C)(C)C,1.91
21,COc1ccc(S(=O)(=O)NCC2CCCO2)cc1C(=O)O (stereo not shown),17.7
22,CCOCCCNC1=C(Cl)C(=O)c2ccccc2C1=O,1.61

row,Compound,"hERG current change (%, negative = inhibition) at 10uM [%]"
1,O=C(c1ccccc1)N1N=C(c2ccco2)CC1c1cccs1 (stereo not shown),-14.9
2,O=C(O)COCC(=O)Nc1ccc2c(c1)CCC2,14.7
3,COc1ccc(NC(=O)N(CCO)Cc2cc3c(C)cc(C)cc3[nH]c2=O)cc1,-15.3
4,COC(=O)c1ccc(NC(=O)CN(c2ccc(C)cc2)S(=O)(=O)c2c(C)nn(C)c2C)cc1,16.5
5,CCOC(=O)c1sc2ncnc(N3CCN(C(=O)OCC)CC3)c2c1C,-53.4
6,O=C(NC1CCCCC1)C12CC3CC(CC(Cl)(C3)C1)C2,-8.27
7,CC1(C(=O)N(CC(=O)NC2CCCC2)Cc2ccccc2)CC(=O)N=C2C=CC=CN21 (stereo not shown),17
8,CC(=O)Nc1ccc(S(=O)(=O)NCc2nnnn2-c2ccc(F)cc2)cc1,3.41
9,Cc1ccc(C(=O)COC(=O)CCC(=O)NC2CCCCC2)cc1C,14.8
10,Fc1ccccc1CNc1cc(Cl)cc(Cl)c1,15.2
11,Cc1ccc(-n2c(=O)[nH]cc(C(=O)Nc3ccc4c(c3)OCCO4)c2=O)cc1C,-5.33
12,O=C(NCc1cccc(Cl)c1)N1CCN(S(=O)(=O)c2ccccc2F)CC1,-25.5
13,Cc1ccc2c(n1)CC(C)(C)CC2=O,14.3
14,Cc1cccc(Cn2c(SCCN3CCCCC3)nc3c2c(=O)[nH]c(=O)n3C)c1,-79.1
15,COc1ccc(OC)c(C2(O)CSC(=Nc3cccnc3)N2Cc2ccco2)c1 (stereo not shown),-16.3
16,CN(CC(=O)Nc1ccc(Cl)cc1)C(=O)c1ccc(COc2ccccc2)cc1,3.79
17,C=CCOC(=O)C1=C[C@H](c2cn(C(C)=O)c3ccccc23)[C@@H](CCCO)[C@H](OCC)O1,-42.2
18,CC(Sc1nc2cc(Cl)ccc2s1)C(=O)Nc1ccc2c(c1)OCO2 (stereo not shown),6.08
19,CCOc1ccccc1C1CC(c2cccc(NS(C)(=O)=O)c2)=NN1C(=O)c1ccccc1 (stereo not shown),-38.1
20,CCOc1ccc(OCCOCCNCCOC)cc1,-0.544
21,O=C(OCc1ccc(Br)cc1)c1cccnc1,-5.96
22,CCSc1nnc([C@@H](N)Cc2ccccc2)o1.Cl,-10.4

row,Compound,"hERG current change (%, negative = inhibition) at 10uM [%]"
1,O=[N+]([O-])/C=C/c1cn(Cc2ccc(Cl)cc2)c2ccccc12,2.65
2,CC(Oc1coc(CN2CCN(C(=O)c3ccco3)CC2)cc1=O)c1ccccc1 (stereo not shown),11.5
3,Cc1noc(C)c1C(=O)Nc1ccc(S(=O)(=O)N2CCCCC2)cc1,20.9
4,O=C(NNC(=O)c1ccccc1[N+](=O)[O-])Nc1ccccc1C(F)(F)F,15.9
5,Cc1ccc(S(=O)(=O)N2CCC(C(=O)Nc3cc(C(F)(F)F)ccc3N3CCOCC3)CC2)cc1C,-7.08
6,COC(=O)C(/C=N/OCc1ccc([N+](=O)[O-])cc1)NC(=O)c1cccc(Cl)c1 (stereo not shown),-29.1
7,O=C(CN1CCN(C(=O)c2ccco2)CC1)Nc1cc(Cl)ccc1Cl,-60.1
8,CC(=O)Nc1ccc2nc(-c3ccco3)[nH]c2c1,7.99
9,CC(=O)c1ccc(NC(=O)C2CCN(S(=O)(=O)c3ccc4c(c3)N(C(C)=O)CCO4)CC2)cc1,-0.485
10,O=C1c2ccccc2-c2onc3c(N4CCN(CCO)CC4)cc(N4CCN(C(=O)c5ccco5)CC4)c1c23,-22.1
11,CCOC(=O)[C@H]1[C@H]2COc3ccc(Br)cc3[C@@H]2N2C(=O)CN(CC3CCCO3)C(=O)[C@@]12C (stereo partly shown),-10.8
12,COc1cc(OC)cc(C(=O)OCC(=O)NC(c2ccccc2)c2ccccc2)c1,6.21
13,O=C(c1cc2cc([N+](=O)[O-])ccc2oc1=O)N1CCOCC1,-0.062
14,Cc1ccc(N(CC(=O)N/N=C/c2cccs2)S(C)(=O)=O)cc1,-3.64
15,CCOc1ccc(NC2CCN(C(C)=O)CC2)cc1,9.81
16,COc1ccc(NC(=O)CSc2nnc(-c3cccnc3)n2C)cc1,8.3
17,Cc1cccc(C)c1NC(=O)c1c(O)c2ccccc2[nH]c1=O,12.1
18,CCOC(=O)c1ccccc1N1C(=O)C2Sc3[nH]c(=O)sc3C(/C=C/c3ccccc3)C2C1=O (stereo not shown),5.45
19,CCOc1ccc(Cc2onc3c2C(=O)CC(C)(C)C3)cc1OCC,-14.6
20,Cc1cc(C)c(NC(=O)C2CCCN2CCO)c(C)c1 (stereo not shown),-14.5
21,O=C(c1ccc(Cl)cc1)c1cc(-c2ccccn2)c(N2CCOCC2)s1,-54.9
22,O=C(Nc1ccccn1)c1ccc2c(c1)OCCO2,11.5
